The full ranking holds about 33,000 sequences; the median of “E-score (-0.5 to 0.5)” is about -0.043, and the highest 2% start at about 0.37. Some of the results follow.
molecular target: T1, Upc2 (UniProt Q12151); test: PBM E-score (8-mer binding enrichment) (E-score (-0.5 to 0.5)); higher = stronger / more preferred TF binding; most listed sequences are background and not binding sites; conditions: protein concentration: 200 nM; construct: GST-full length
T1 sequence: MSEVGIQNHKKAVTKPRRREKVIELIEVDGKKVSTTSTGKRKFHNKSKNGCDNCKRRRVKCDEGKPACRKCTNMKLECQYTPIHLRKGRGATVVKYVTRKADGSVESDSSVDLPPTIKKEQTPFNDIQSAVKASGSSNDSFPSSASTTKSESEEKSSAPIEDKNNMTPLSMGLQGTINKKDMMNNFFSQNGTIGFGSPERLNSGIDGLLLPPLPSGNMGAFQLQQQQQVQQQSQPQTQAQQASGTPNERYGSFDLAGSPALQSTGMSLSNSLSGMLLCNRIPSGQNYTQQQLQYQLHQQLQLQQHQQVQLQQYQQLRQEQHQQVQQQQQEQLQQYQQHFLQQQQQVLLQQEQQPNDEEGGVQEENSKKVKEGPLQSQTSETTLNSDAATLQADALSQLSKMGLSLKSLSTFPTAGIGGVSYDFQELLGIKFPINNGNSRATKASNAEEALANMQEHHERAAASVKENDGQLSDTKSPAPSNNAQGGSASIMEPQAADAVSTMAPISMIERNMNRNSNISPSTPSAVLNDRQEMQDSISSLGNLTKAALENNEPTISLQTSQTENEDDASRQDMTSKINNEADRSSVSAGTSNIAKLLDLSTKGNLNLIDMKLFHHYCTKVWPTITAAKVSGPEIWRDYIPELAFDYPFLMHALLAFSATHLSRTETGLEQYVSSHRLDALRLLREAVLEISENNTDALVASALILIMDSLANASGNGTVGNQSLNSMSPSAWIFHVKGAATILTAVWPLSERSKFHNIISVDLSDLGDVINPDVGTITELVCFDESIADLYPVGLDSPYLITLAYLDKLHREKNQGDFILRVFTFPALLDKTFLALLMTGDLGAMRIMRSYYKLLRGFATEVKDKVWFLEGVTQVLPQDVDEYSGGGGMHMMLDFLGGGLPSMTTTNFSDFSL
Outline: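 Bound GST-tagged yeast transcription factors, applied at about 100-200 nM to double-stranded universal all-10-mer Agilent arrays, were detected with fluorescent anti-GST. Scans were normalised with masliner. A modified Wilcoxon-Mann-Whitney statistic, the E-score, was assigned to each ungapped eight-base word pooled with its reverse complement by the Universal PBM Analysis Suite.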

In order of rising “PBM E-score” value:
1. TCTCAAGA  -0.386
2. GTCTTGGA  -0.347
3. AGGGCAAC  -0.339
4. AGGCCGGC  -0.327
5. ACTGGCTA  -0.325
6. GACGTCAC  -0.319
7. CCGCGCCC  -0.301
8. CCACCTAC  -0.298
9. GCAGGCAC  -0.282
10. AACTCCAA  -0.279
11. AGGGAAGG  -0.278
12. CCATGCAG  -0.255
13. CCCATCAG  -0.245
14. CACGGAAG  -0.232
15. AATCCTGG  -0.229
16. AGGAGTAG  -0.228
17. GACTCCAC  -0.226
18. AGCAGCAA  -0.222
19. CCCGACAG  -0.221
20. ACTACCCT  -0.221
21. TCCGGAGA  -0.214
22. TCCAGTAA  -0.212
23. ACATGGGC  -0.212
24. CCACCTAG  -0.209
25. CACATAGG  -0.207
26. CGCCGTGC  -0.206
27. ACTCTTTG  -0.206
28. CTTAGGAC  -0.205
29. GCTGCTCC  -0.203
30. AAGCATCA  -0.197
31. ACCCCAGC  -0.195
32. AGATAGGA  -0.185
33. GGCCCGGA  -0.181
34. TCGGGCCA  -0.175
35. GATACAGA  -0.166
36. GCTCCCGA  -0.166
37. ACAGGGGT  -0.166
38. CGCCGTCA  -0.165
39. CCATTCTC  -0.165
40. AGCTGCAC  -0.162
41. CTGTAGAC  -0.159
42. CATCGCCA  -0.158
43. ACATTTAG  -0.157
44. GGTAGGGA  -0.155
45. AACCGGCA  -0.151
46. ATGTCTAG  -0.149
47. CCCGTTAG  -0.147
48. GCGCCTCA  -0.142
49. CCGTCCAA  -0.133
50. CATGCCAG  -0.132
51. AACTCACA  -0.127
52. GCTTCTAA  -0.126
53. GAAGGTGC  -0.124
54. ACGCCACG  -0.121
55. CGCCCCAA  -0.119
56. AAGGCCGG  -0.119
57. TAGGCAGA  -0.114
58. CACTCAAG  -0.112
59. AGCGTTAT  -0.104
60. GCTGGGCA  -0.103
61. AAAACAAC  -0.103
62. CGGTTGCA  -0.101
63. AGGACCAA  -0.0993
64. AACTGGCC  -0.0972
65. CCAAGATA  -0.0954
66. GAGTGATC  -0.0886
67. AGCGTGCC  -0.0881
68. CTGGATTA  -0.0807
69. CGGAGTGC  -0.0805
70. CCGCCAGA  -0.0795
71. AAACCCTT  -0.0779
72. AAAAGGAT  -0.0713
73. AGCTGCGC  -0.0694
74. CATCATCG  -0.0677
75. CCCAGCCA  -0.0649
76. CCCATATC  -0.0647
77. CAAAGTTA  -0.0595
78. CGGCATAG  -0.0559
79. ATCTTAAT  -0.0519
80. TAAATCTA  -0.05
81. CAGGTTGA  -0.0492
82. ACCTATGC  -0.0457
83. CCAACCAC  -0.042
84. AGCTACAC  -0.041
85. GAGTTCCA  -0.0401
86. ATTTCCAG  -0.0385
87. AAGACCGC  -0.0359
88. ATATGAAT  -0.0329
89. AGCGTGAA  -0.0302
90. CGCAACAA  -0.03
91. AGAAACAC  -0.0232
92. AGGTGCTA  -0.0228
93. ATCCGCCC  -0.0223
94. CGCGTTAG  -0.0219
95. ACCACTTC  -0.0166
96. ACCCTTCT  -0.0155
97. AATAGAGC  -0.0115
98. GATAGGTA  -0.0107
99. ACATTTCT  -0.0103
100. CATAAAAG  -0.00852
101. CAAAATCA  -0.00479
102. ATGACTTA  -0.00461
103. AGTGTTTG  -7e-05
104. TCGATCGA  0.00235
105. AAAATAAG  0.0102
106. CGGTGTAG  0.0105
107. AGGTCCTC  0.0108
108. GATATCTA  0.011
109. ATCGCGGC  0.0113
110. CAACAAGA  0.0115
111. CCCTTAAA  0.0133
112. GATGGTGC  0.014
113. AGGATCGC  0.015
114. ATGAACTA  0.0188
115. TCCGCTAA  0.0225
116. CCTCTGTC  0.0289
117. ACTTACAT  0.0328
118. CGGCTGAC  0.0387
119. ATCATGAG  0.0412
120. ATTGCTTC  0.0491
121. TACTAGCA  0.0502
122. ACCATAAC  0.0503
123. GCTGTCCC  0.0523
124. ACCAACAC  0.0529
125. CCTCCATC  0.0545
126. ACCCTTAA  0.0556
127. ACGTCTTC  0.0586
128. ACCAACTA  0.0588
129. CTAAGAAA  0.0673
130. AAGAGTAC  0.0697
131. TCGCTGCA  0.0736
132. CCCACGAA  0.0759
133. CTCAGTAC  0.0767
134. TTACACAA  0.0925
135. ATACTCGA  0.0936
136. ACTTGCGC  0.0996
137. CGGAGCCG  0.101
138. GTTCTCTA  0.102
139. GATACCTA  0.104
140. CGCGCGCG  0.111
141. GAGCGCGA  0.111
142. ATCTGACC  0.121
143. ATTTCGCC  0.131
144. AACGTAGC  0.136
145. AACGCAAT  0.138
146. CTTCTCGC  0.143
147. GGGCGGGA  0.145
148. CCTCGGTA  0.146
149. ATAGTACA  0.149
150. AGCGTTTG  0.149
151. CGAACGCA  0.162
152. ACATCGAA  0.168
153. TATTTTAA  0.172
154. CGAGGTCA  0.179
155. CGTTTCTA  0.209
156. CGTTTCTC  0.209
157. CCCGCTAC  0.216
158. GCTCGCGA  0.217
159. CGAGTACA  0.232
160. CGCTGTAC  0.236
161. ACGATGTC  0.248
162. CACGTAAA  0.253
163. CGCTTAGA  0.284
164. ACGCAAAC  0.294
165. TCGTTACA  0.294
166. ATACGTGA  0.301
167. AGCGAACG  0.311
168. ACGACCGT  0.338
169. ATTACGAA  0.339
170. ACGAATCG  0.34
171. CGTATGGC  0.413
172. ATTTACGA  0.45

Reference: the supplement of paper PMC3334620
